Over roughly 33,000 sequences, “E-score (-0.5 to 0.5)” has its median near -0.036; the highest 2% begin near 0.37. Some of the results follow.
Target: T1, Yer064c (UniProt P40041)
T1 sequence: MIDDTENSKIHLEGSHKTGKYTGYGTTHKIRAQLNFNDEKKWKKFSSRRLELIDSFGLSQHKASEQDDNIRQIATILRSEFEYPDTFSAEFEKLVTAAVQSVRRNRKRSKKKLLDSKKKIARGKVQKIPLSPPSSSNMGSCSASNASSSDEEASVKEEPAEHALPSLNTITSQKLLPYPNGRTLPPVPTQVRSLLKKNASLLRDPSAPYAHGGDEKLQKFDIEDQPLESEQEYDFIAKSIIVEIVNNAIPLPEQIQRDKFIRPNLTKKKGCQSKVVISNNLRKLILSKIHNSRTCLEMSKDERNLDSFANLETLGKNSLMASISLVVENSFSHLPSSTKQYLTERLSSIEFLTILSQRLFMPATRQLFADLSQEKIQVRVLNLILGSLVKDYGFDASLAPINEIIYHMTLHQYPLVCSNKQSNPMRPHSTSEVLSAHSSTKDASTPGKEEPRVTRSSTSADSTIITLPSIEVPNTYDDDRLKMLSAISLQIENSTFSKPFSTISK
Assay: PBM E-score (8-mer binding enrichment) (E-score (-0.5 to 0.5)); higher = stronger / more preferred TF binding; most listed sequences are background and not binding sites
Conditions: protein concentration: 200 nM; construct: GST-full length
Method in brief: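 Using PURExpress in vitro transcription/translation, GST-tagged yeast transcription factors were made in full-length or DNA-binding-domain form. These were applied at about 100-200 nM to double-stranded universal all-10-mer Agilent arrays, and bound protein was detected with fluorescent anti-GST. Scans were normalised with masliner before the Universal PBM Analysis Suite assigned E-scores to ungapped eight-base words pooled with their reverse complements.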

Row | Sequence | PBM E-score
1 | GAGAGAAC | -0.058
2 | CGCAGGGC | 0.0685
3 | ACTGGAAT | -0.085
4 | TATCTTCA | 0.0425
5 | CGGAATAG | 0.097
6 | CGGTTGCC | 0.026
7 | GGGGCAAA | -0.35
8 | GCCGAAGA | 0.0984
9 | ACTGCAAC | -0.00506
10 | GCCTAGCA | -0.235
11 | AAATGCCT | -0.305
12 | GACATGTA | 0.0366
13 | CATCTAAA | 0.0832
14 | AATATCCT | -0.0515
15 | ATCCGGTC | -0.135
16 | GTCCATAA | -0.161
17 | CCGGTCAG | -0.221
18 | ACTAGGTG | 0.0089
19 | AGCGCCCA | -0.214
20 | GTCCGCTA | 0.102
21 | GAAGTGAA | 0.00035
22 | ATTAGGTA | 0.0169
23 | GCGCCGCA | -0.324
24 | ATCTCCCA | -0.0716
25 | ATCTTACC | 0.0346

Row | Sequence | PBM E-score
26 | GCATAGGA | -0.0695
27 | GCGCATAA | -0.0865
28 | CAGAGTAC | 0.109
29 | AGAATCTG | -0.0207
30 | GCTAAAAA | 0.0668
31 | CACGCATA | -0.138
32 | ACGTCTTA | -0.103
33 | CCGCGGCC | -0.238
34 | CGCTGCCG | -0.17
35 | GACGGGCC | -0.298
36 | TAACTAAA | 0.0425
37 | TGCCTAAA | -0.234
38 | CAACGCTG | -0.207
39 | AGCGTTTA | -0.164
40 | AGTGCTCC | -0.147
41 | CGAACCAC | 0.00756
42 | AACCGATT | 0.0217
43 | AAAATGTT | -0.122
44 | GTAAATCA | 0.349
45 | GCTGGACC | -0.21
46 | GAGTAATC | 0.316
47 | ATGTATCA | 0.181
48 | AGAATCAG | 0.325
49 | CAGGCATA | -0.0996
50 | GATAGCAC | -0.202

Row | Sequence | PBM E-score
51 | GACTGCTC | 0.208
52 | TCCCACCA | -0.172
53 | CGGAACAG | 0.0244
54 | GAAGCCGC | -0.262
55 | AAGTACGA | 0.0389
56 | GGGACGGA | -0.374
57 | CACACTAA | 0.126
58 | CCGTCTCC | -0.236
59 | CAGGAGCG | -0.185
60 | AAGGGTGA | 0.103
61 | GTGAGCGA | -0.0985
62 | AGGCTGAA | -0.0156
63 | GACCGTGC | -0.142
64 | AGAGACCC | -0.233
65 | ACTCGTAT | 0.107
66 | ACTTAACT | 0.224
67 | CAATGGAC | -0.0225
68 | CTCGGGCC | -0.0244
69 | CTGGGCTC | -0.201
70 | GAGCGAAA | 0.0368
71 | CCCAGACC | -0.294
72 | CGAGTCCA | 0.0419
73 | ACCACAAC | 0.0173
74 | ATTTAGCG | 0.0246
75 | CCGCCCAG | -0.0878

Row | Sequence | PBM E-score
76 | GACTGCTA | 0.127
77 | ACTGCATA | 0.207
78 | ACAACCAA | 0.0473
79 | GAGCATAC | -0.118
80 | AAAGCTTA | -0.0514
81 | CGAATTCC | -0.165
82 | AGTCCCAC | 0.153
83 | ATGCAATA | -0.0465
84 | TCACTTCA | 0.0139
85 | GCAACAAC | -0.163
86 | CGAAATAA | 0.11
87 | AGCACCGG | -0.0612
88 | GGTGTAGA | -0.12
89 | GCCTGGCA | -0.261
90 | ATCTCCAC | -0.166
91 | AATAAAAT | 0.247
92 | AAGCGTTC | -0.111
93 | GATTCCCA | 0.208
94 | AGACATCT | 0.166
95 | AGCATCCT | -0.331
96 | GGAGCGTA | -0.0496
97 | ACAAATAT | -0.0832
98 | AGACAACA | -0.156
99 | TCTCTCAA | 0.138
100 | AAGACACC | 0.0365

Row | Sequence | PBM E-score
101 | ATTAGTCC | 0.373
102 | AAACTAAC | -0.0125
103 | ACTCGTTA | 0.173
104 | CTGGTAAG | 0.0225
105 | ACATATTA | -0.00112
106 | AAGAGGAA | -0.0236
107 | AGGTTTGA | -0.0517
108 | ATGTGTGG | -0.0283
109 | GGCGGTAC | -0.162
110 | GATGCGCA | -0.189
111 | TCAGCGCA | 0.0178
112 | CTAGAATC | 0.229
113 | GCTTGGCC | -0.215
114 | CTTTAAAG | 0.00814
115 | CATGTCAG | 0.00961
116 | CTGTCACC | -0.126
117 | GAAGCCTA | -0.143
118 | AGTGAGCC | 0.215
119 | GATCAAAC | 0.0273
120 | AGTTGACG | 0.129
121 | CATCACTC | 0.0183
122 | TCAGCCCA | 0.0126
123 | CACTAACA | 0.0977
124 | ATCGTCAT | 0.0309
125 | CGTTTCAC | -0.229

Row | Sequence | PBM E-score
126 | ACACGAAC | -0.0269
127 | CCTTCAAC | -0.0733
128 | ACGACTGG | 0.148
129 | CCTGCCTC | -0.25
130 | CCCGTACG | -0.197
131 | CGGGGCAA | -0.178
132 | AGACTATA | 0.35
133 | AATTTCCT | -0.111
134 | CAGGATCC | -0.299
135 | TTAGAGAA | 0.0144
136 | CGCTTGCC | -0.312
137 | CACGGACG | -0.0942
138 | CGACGTCA | -0.00769
139 | CAATTAAA | 0.136
140 | AGTAAACC | -0.0239
141 | ACCGAAGT | 0.062
142 | CGGACACA | -0.0532
143 | GGGAGGAC | -0.176
144 | ATGCCTCC | -0.18
145 | CCCTCAGA | -0.025
146 | GAACCCCC | -0.367
147 | AATAGTCC | 0.241
148 | GATCGGAC | 0.0215
149 | GTTACCCA | 0.188
150 | AGGTGGTC | -0.0833

Row | Sequence | PBM E-score
151 | ATATGCAC | -0.0861
152 | AAGTATCA | -0.0667
153 | ATCGTTGG | 0.047
154 | GCGATAGA | -0.182
155 | ACCTGAGG | -0.0511
156 | AAGATTAC | 0.241
157 | GCTACACC | -0.0406
158 | ACACGCGG | -0.141
159 | ATATAGCA | -0.00055
160 | CAAACCAA | -0.0441
161 | ACATGTAG | 0.00967
162 | GCCTGGAA | 0.0365
163 | CGCTACCC | -0.099
164 | CAACACTG | -0.0078
165 | AGTACAAA | 0.271
166 | CGGCGATA | 0.143
167 | CGTTCAGA | -0.0244
168 | AAACTGCC | 0.11
169 | CGATAACA | -0.226
170 | ATGATGCA | 0.0908
171 | ATTGCATA | -0.0593
172 | CCGCAGAG | -0.0387
173 | AACACGAG | -0.0565
174 | AAGCATGG | -0.179
175 | ACACAAAT | 0.00029

Row | Sequence | PBM E-score
176 | ACTGATAT | 0.0497
177 | AGCTAACC | -0.0695
178 | ATGAGGAG | -0.026
179 | AGAAGCCA | -0.0348
180 | ATCGATGC | -0.198
181 | CCCGTCAC | -0.276
182 | GACGATAA | -0.172
183 | AGCGGCAT | -0.184
184 | CTTAATGA | 0.164
185 | CCGACTAG | 0.0841
186 | AAATTTAT | 0.0633
187 | TTCACCAA | -0.0917
188 | GCATTTCC | -0.0262
189 | GTCCAGGA | -0.0124
190 | GATCTTCC | -0.161
191 | AATCACGG | 0.322
192 | AGTATCAC | -0.09
193 | CCACACGG | -0.161
194 | ATGCGGAA | -0.0206
195 | GTCGTACA | 0.19
196 | CGGCACAG | -0.185
197 | GAGATTTA | 0.00633
198 | AACACTAC | 0.0587
199 | CACTATGC | 0.0417
200 | AGAATCGC | 0.127

Row | Sequence | PBM E-score
201 | CCGCGAAA | 0.13
202 | CAAAGCTA | -0.0479
203 | ACGCCAAA | -0.099
204 | ACTTAATA | 0.229
205 | AGCCGTGC | -0.181
206 | GGATTGAC | 0.19
207 | ATACCGGC | -0.275
208 | CTGTTTAA | 0.154
209 | AATCGCAA | 0.152
210 | TAAGCTAA | 0.063
211 | AGTACGGG | -0.224
212 | CACATCTG | 0.0495
213 | CCTTCGTA | -0.15
214 | CTTTCGGC | -0.0605
215 | GTCGCCAC | 0.044
216 | AAGTAAAC | 0.126
217 | ATGGATAC | 0.117
218 | AAACAAAG | -0.0527
219 | TCTGGTAA | 0.0513

From the supplement of paper PMC3334620
